Results taken from PubChem BioAssay AID1645887 (National Center for Advancing Translational Sciences (NCATS), 2021).
Values joined by “and” are separate entries in the source; they are usually repeats but may differ in a detail not shown here. Equal values may be shown once. Hit rate of the full screen: of about 16,000 compounds, about 40 (0.2%) were called active. About 1% were inconclusive and are not listed. Calls follow the shape of the dose curve; as a rule, active = well fitted activation curve with a large enough effect; inconclusive = small, poorly fitted or top-dose-only effect, or another doubt; inactive = no such curve, though single readings can be large or run the other way. This is one part of the list.

These molecules were tested against Rap guanine nucleotide exchange factor 4 (Homo sapiens) (UniProt Q8WZA2) (assay: Validation qHTS for agonist of cAMP-regulated guanine nucleotide exchange factor 4 (EPAC2)). Conditions: EPAC2 Rap1B BODIPY-GDP exchange, fluorescence; activation: hits give high values.
UniProt Q8WZA2, sequence (Q8WZA2 whole entry, looked up): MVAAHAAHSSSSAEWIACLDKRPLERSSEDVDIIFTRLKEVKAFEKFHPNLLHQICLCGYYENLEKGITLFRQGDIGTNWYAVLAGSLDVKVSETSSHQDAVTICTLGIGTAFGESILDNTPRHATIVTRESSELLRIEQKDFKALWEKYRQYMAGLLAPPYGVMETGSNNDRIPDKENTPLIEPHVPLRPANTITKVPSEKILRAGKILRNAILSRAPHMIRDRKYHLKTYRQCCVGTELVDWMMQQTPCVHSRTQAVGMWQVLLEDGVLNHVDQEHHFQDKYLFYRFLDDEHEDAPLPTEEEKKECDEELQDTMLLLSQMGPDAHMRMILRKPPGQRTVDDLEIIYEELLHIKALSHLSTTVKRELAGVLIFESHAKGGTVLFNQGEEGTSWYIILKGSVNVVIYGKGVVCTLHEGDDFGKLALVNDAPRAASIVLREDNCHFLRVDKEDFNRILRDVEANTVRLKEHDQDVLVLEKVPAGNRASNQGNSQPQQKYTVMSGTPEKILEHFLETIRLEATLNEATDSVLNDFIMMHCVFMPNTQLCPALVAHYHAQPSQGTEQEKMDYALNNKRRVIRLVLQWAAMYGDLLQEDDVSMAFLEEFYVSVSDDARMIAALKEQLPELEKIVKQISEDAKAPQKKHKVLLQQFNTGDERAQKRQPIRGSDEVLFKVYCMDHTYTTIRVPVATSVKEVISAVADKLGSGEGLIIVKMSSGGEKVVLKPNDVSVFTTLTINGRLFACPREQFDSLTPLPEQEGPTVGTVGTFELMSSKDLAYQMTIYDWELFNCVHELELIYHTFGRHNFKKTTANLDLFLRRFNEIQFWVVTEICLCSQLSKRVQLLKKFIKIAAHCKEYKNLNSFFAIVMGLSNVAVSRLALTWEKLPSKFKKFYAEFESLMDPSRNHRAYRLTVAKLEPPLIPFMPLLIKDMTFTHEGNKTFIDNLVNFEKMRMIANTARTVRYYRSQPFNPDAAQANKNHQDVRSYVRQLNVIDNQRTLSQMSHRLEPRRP
In short: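 Fluorescent exchange assay: 100 nM EPAC2 with 250 nM RAP1B-BODIPY-GDP and 50 uM GDP; compound added, 5 min at room temperature, then read (ex 480/em 540 nm) every 5 min for 30 min. Normalized to 6.5 mM cAMP agonist control.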
% is scaled to controls: 0 for no effect and ±100 for the full control effect.
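Also: exchange makes BODIPY-GDP fluorescence drop when released from Rap1B; series mostly up to about 150 µM.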

activation, inactive:
CCCCCC/C=C\CCCCCCCc1cccc(O)c1C(=O)O -19.8%
CC[C@H]1CN2CCc3cc(OC)c(OC)cc3[C@H]2C[C@@H]1C[C@@H]1NCCc2cc(OC)c(OC)cc21 2.28%
O=C(Oc1cc(OC(=O)c2ccccc2)c2c(c1)OC(c1ccc(OC(=O)c3ccccc3)c(OC(=O)c3ccccc3)c1)[C@@H](OC(=O)c1ccccc1)C2)c1ccccc1 (some centres undefined) -15.7%
COc1ccc(C(=O)N2CCC3(CCN(C(=O)Nc4cccc(F)c4)CC3)CC2)cc1 -19.3%
Cc1c(C(N)=O)cc([N+](=O)[O-])cc1[N+](=O)[O-] -10.8%
CCN(CC)C[C@@H]1CCCCN1CC(=O)N1c2ccccc2C(=O)Nc2cccnc21 -8.18%
CN1CCC2(CC1)CCN(C(=O)c1cccc(F)c1)CC2 -8.12%
O=S1(=O)[C@H]2C[C@@H]3C=C[C@@]2(CN1Cc1ccc(Cl)cc1)O3 0.0863%
CNC(=O)[C@H]1O[C@@H](n2cnc3c(NCc4cccc(I)c4)ncnc32)[C@H](O)[C@@H]1O 6.94% and -4.99% and -18.9%
Cc1cccc(CNc2nc(-c3cccc(NS(C)(=O)=O)c3)nc3ccccc23)c1 -7.89%
C/C=C/C(=O)N(CC)c1ccccc1C -5.78% and -11.3%
O=c1c(-c2ccc(F)c(F)c2)nc2cncnc2n1C1CC1 -15.8%
COc1ncc2nc(-c3ccc(F)cc3)c(=O)n(CCc3ccccc3)c2n1 -4.88%
CCOC(=O)C[C@H]1c2cc(C(F)(F)F)ccc2S(=O)(=O)N1C(C)C -12.9%
NC(N)=NCCNS(=O)(=O)c1cccc2cnccc12 6.28%
COc1ccc(NC(=O)[C@@H]2CC=C[C@@H]3CCN(Cc4ccc(Cl)c(Cl)c4)C(=O)[C@@H]32)cc1 -5.72%
C=CCN1CCN(c2nc3ccccc3nc2C#N)CC1 -6.13% and -1.08%
CS(=O)(=O)Nc1cccc(-c2nc(Nc3ccccc3)c3ccccc3n2)c1 -10.5%
COC(=O)C1N[C@@H]([C@@H](NC(=O)COc2ccccc2)C(=O)NCc2ccsc2)SC1(C)C (some centres undefined) -10.9%
N[C@@H](C(=O)N[C@H]1C(=O)N2C(C(=O)O)=C(Cl)CC[C@H]12)c1ccccc1 -15.3%
Cc1cccc(C)c1NC(=O)C1CCCCN1C (centres undefined) -28.7%
COc1ccc(C2C(=O)c3ccccc3C2=O)cc1 -20.6%
COc1cc2nc(CC(O)c3nc4cc(OC)c(OC)cc4[nH]3)[nH]c2cc1OC (centres undefined) -5.47%
C[C@@H](CN(C)C)CN1c2ccccc2Sc2ccccc21 -7.27%
CN(C)c1ncnc2ccc(-c3ccc4c(c3)OCO4)cc12 -11.6%
COc1cc(/C=C/C(=O)N2CCC=CC2=O)cc(OC)c1OC -4.17%
CN(C)c1ccc2nc3ccc(=[N+](C)C)cc-3sc2c1 -9.56%
O=c1c(CCc2ccccc2)nc2cncnc2n1Cc1ccccc1 -0.745%
COc1ccc(OC)c(-c2cc(Cl)c3c(c2)CC(CNC(=O)c2cnn4cccnc24)O3)c1 (centres undefined) -7.05%
Cc1cn([C@H]2C[C@H](F)[C@@H](CO)O2)c(=O)[nH]c1=O -1.45%
Cc1nc2cnc(Oc3ccccc3)nc2n(CCc2ccccc2)c1=O -6.52%
Cc1noc(C)c1C(=O)N1CCC[C@@]2(CCN(Cc3ccccc3)C2)C1 -10.5%
Cc1cc(C(=O)NCCc2ccc(S(=O)(=O)NC(=O)NN3CCCCCC3)cc2)no1 7.44%
CN(CCc1ccc(Cl)c(Cl)c1)C[C@@H](O)COc1ccc(NS(C)(=O)=O)cc1 -0.238%
C[C@H]1CCC(=O)N([C@H](CC#N)Cc2ccccc2)CC1 -16.7%
COc1cc(OC)c2c(OC)c(-c3ccc4c(c3)OCO4)c(=O)oc2c1 -28.7%
CC(CSC(=O)c1ccccc1)C(=O)N1C[C@@H](Sc2ccccc2)C[C@H]1C(=O)O (some centres undefined) 2.56%
CN1C(C(=O)Nc2ccccn2)=C(O)c2sccc2S1(=O)=O -3.57% and -13.5%
CC(C)CSc1nnc(CNC(=O)c2ccccn2)n1C -8.29%
O=c1c(CCc2ccccc2)nc2cnc(N3CCOCC3)nc2n1-c1ccccc1 -9.11%
Cc1ccc2[nH]cc(C(O)c3c[nH]c4ccc(C)cc34)c2c1 -2.87%
Cc1noc(C)c1-c1ccc2ncnc(N(C)C)c2c1 -10.9%
Cc1cnc(-n2ncc(C(=O)N3CCN(C(C)C)CC3)c2-c2ccco2)nc1-c1ccc(F)cc1 -3.63%
C[Se]CCC(N)C(=O)O (centres undefined) -9.64%
CN1CCN(c2ncncc2-c2ccc(C(=O)N(C)C)cc2)CC1 -10.3%
CC12CC[C@@](C(=O)O)(C(=O)C1=O)C2(C)C -2.46%
CC(=O)c1ccc(-c2ccc3c4c(ccc3c2)OC(CNC(=O)[C@@H]2CCCN2C(C)=O)C4)s1 (some centres undefined) -9.51%
Cc1ccc(O)c2ncccc12 -17.8%
COc1ccc(S(=O)(=O)Nc2nnc(CC(C)C)s2)cc1 5.9% and 4.88%
CC1(C)S[C@H]2[C@@H](NC(=O)C(N)c3ccccc3)C(=O)N2[C@H]1C(=O)O (some centres undefined) -20.4%
O=S(=O)(c1ccccc1)N1CCC[C@@]2(CCN(Cc3ccccc3)C2)C1 -0.125%
Cc1cc(C)n(-c2cccc(C(=O)NCC3Cc4cc(Cl)cc(-c5cnccn5)c4O3)c2)n1 (centres undefined) 3.01%
CCN1CCN(C(=O)c2cnn(-c3ncc4c(n3)-c3ccccc3CCC4)c2COC)CC1 -5.13%
C=C1c2c(Cl)ccc(O)c2C(O)=C2C(=O)[C@]3(O)C(O)=C(C(N)=O)C(=O)C(N(C)C)C3C(O)C12 (some centres undefined) -11.1%
